Assay results taken from paper PMC4336329 (PLoS ONE, 2015).
Among all 310,000 compounds or so, about 2,200 (0.71%) showed an effect of 50% or more. The effect is printed as a negative number. The list shows a part of the results.

These compounds were tested against human ether-à-go-go-related gene (hERG) potassium channel (human, UniProt Q12809) (assay: primary screen, population patch clamp on CHO cells stably expressing hERG).
Sequence of human ether-à-go-go-related gene (hERG) potassium channel (Q12809 whole entry, looked up): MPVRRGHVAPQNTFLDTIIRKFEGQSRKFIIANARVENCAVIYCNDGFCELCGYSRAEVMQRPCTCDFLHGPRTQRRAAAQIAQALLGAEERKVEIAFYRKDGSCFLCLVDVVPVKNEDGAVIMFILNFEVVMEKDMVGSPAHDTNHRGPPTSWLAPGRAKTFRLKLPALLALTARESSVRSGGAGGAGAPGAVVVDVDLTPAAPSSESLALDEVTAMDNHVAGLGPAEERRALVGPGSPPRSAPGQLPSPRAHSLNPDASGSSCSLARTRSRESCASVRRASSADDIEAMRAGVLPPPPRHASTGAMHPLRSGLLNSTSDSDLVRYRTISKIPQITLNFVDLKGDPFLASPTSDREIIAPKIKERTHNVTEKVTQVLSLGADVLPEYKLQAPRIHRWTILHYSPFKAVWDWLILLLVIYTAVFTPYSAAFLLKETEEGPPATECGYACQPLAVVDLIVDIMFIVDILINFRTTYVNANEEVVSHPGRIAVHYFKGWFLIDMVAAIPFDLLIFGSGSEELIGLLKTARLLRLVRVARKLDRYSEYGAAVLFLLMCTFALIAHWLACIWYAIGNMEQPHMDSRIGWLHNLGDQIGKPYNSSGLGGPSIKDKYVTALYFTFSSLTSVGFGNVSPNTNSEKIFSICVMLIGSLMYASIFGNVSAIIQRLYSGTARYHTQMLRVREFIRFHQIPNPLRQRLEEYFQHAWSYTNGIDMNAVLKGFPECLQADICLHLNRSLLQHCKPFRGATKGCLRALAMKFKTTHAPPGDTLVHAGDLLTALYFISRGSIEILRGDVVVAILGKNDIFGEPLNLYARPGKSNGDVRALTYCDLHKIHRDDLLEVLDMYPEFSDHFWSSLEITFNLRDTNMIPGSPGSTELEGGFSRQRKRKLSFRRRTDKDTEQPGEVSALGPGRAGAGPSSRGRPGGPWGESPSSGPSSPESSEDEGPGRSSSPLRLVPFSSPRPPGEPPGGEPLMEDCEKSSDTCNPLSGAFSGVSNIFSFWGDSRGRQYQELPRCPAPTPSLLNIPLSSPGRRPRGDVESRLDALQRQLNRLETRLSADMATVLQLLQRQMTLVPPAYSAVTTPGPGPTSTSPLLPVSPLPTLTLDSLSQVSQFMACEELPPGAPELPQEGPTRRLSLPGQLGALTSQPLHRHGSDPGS

SMILES	hERG current change (%, negative = inhibition) at 1uM
Cc1ccc(-c2ccc(/C=N/N3C(=O)C4C5C=CC(CC5)C4C3=O)o2)c([N+](=O)[O-])c1 (stereo not drawn)	-0.364%
CC(OC(=O)Cc1coc2cc3c(cc12)CCC3)C(=O)NC(N)=O (stereo not drawn)	9.58%
O=C(COC(=O)c1ccc(O)cc1O)Nc1cccc2ccccc12	-7.53%
N#Cc1ccccc1CN1C(=O)S/C(=C/c2cccn2-c2ccc(C(=O)O)cc2)C1=O	3.63%
Cc1cc(/C=N/NC(=O)C(=O)NCc2ccccn2)c(C)n1-c1ccccc1	-0.58%
NC(=O)CSc1nnc(Cn2c(=O)sc3ccccc32)n1-c1ccccc1	1.49%
Cc1ccc(NC(=O)C2CCCO2)cc1[N+](=O)[O-] (stereo not drawn)	3.24%
COc1ccc(Cc2nnc(SCc3nc4ccccc4c(=O)[nH]3)o2)cc1	15.5%
COc1ccc(OCC(O)Cn2c(=N)n(CCN3CCCCC3)c3ccccc32)cc1.Cl (stereo not drawn)	-51.2%
Cc1ccc2c(c1)N(CC(=O)Nc1c(C)cccc1C)C(=O)c1cccnc1O2	20.1%
CC(=O)c1cccc(Nc2cc(C)nc3ccccc23)c1.Cl	-7.18%
CCSc1ccc2c(c1)N(CCCN1CCN(C)CC1)c1ccccc1S2.O=C(O)CC(O)C(=O)O	3.21%
CCOC(=O)[C@@H]1[C@H]2COc3ccc(Br)cc3[C@@H]2N2C(=O)N(c3ccc(Cl)cc3)C(=O)[C@]12C	5.97%
COc1ccc(C2C(C#N)=C(N)OC3=C2C(=O)CC(C)C3)c(OC)c1OC (stereo not drawn)	10%
COC(=O)c1ccc(N2CCN(c3ccccc3)CC2)nc1	10.6%
Clc1ccc(CN2CCN(/N=C/c3cccnc3)CC2)cc1	7.43%
O=C(O)c1ccc(S(=O)(=O)Nc2ccc(O)c(Sc3nc4ccccc4s3)c2)cc1	9.28%
COc1cc(C(=O)Nc2ccc([N+](=O)[O-])cn2)cc(OC)c1OC	12%
CCOC(=O)C(C(=O)OCC)C(C(=O)OCC)N1CCOCC1 (stereo not drawn)	15.7%
COc1cccc(OCc2nc3c4cnn(-c5ccccc5)c4ncn3n2)c1	5.22%
COc1ccc(/[N+]([O-])=C/c2ccco2)cc1	13.1%
C=CCN(c1ccccc1)S(=O)(=O)c1ccc2[nH]cc(C(=O)NCCOC)c(=O)c2c1	9.96%

SMILES	hERG current change (%, negative = inhibition) at 1uM
Cc1cccc(Cn2nc(-n3cccc3)c3c(C)cc(C)nc32)c1	11.5%
COc1ccc(CC(=O)N/N=C/C=C/c2cccc([N+](=O)[O-])c2)cc1OC	15.6%
CCc1ccc(NC(=O)CNC(=O)[C@@H]2Cc3ccccc3CN2)cc1	1.35%
C/C(=N\NC(=O)COc1ccc(C)cc1C(C)C)c1cc2ccccc2o1	9.23%
CCC(C)NC(=O)CNC(=O)c1nn(-c2ccc(OC)cc2OC)c(=O)c2ccccc12 (stereo not drawn)	19.3%
CCCCCCOC(=O)Cc1c(C)nc(-c2ccccc2)[nH]c1=O	3.98%
Cc1cc(C)cc(NC(=S)N2CCC(NC(=O)c3ccc(F)cc3)CC2)c1	5.31%
CCOC(=O)c1cc(C(=O)Nc2cccc(C)c2)nn1C	15.9%
O=C(COC(=O)Cc1ccsc1)Nc1ccc(Cl)c(S(=O)(=O)N2CCOCC2)c1	-2.15%
CC(NS(=O)(=O)c1ccc(Br)cc1)C(=O)NC1CCCCCC1 (stereo not drawn)	3.02%
Cc1cc(C)nc(Nc2ccccc2F)n1.Cl	9.3%
Cc1cccn2c(=O)c3cc(S(=O)(=O)c4ccc(Br)cc4)c(=N)n(C4CCCCC4)c3nc12	26%
C/C(=N/NS(=O)(=O)c1ccc(Cl)cc1)c1ccncc1	11.9%
O=C(Nc1ccc(Cc2ccncc2)cc1)C1CC1	9.03%
Cc1ccc([C@H]2C(C#N)=C(N)Oc3cc(C)oc(=O)c32)o1	12.8%
O=C(c1ccc(NC2=NC3CS(=O)(=O)CC3S2)cc1)N1CCc2ccccc2C1 (stereo not drawn)	14.2%
Cc1ccc2c(ccc(=S)n2C)c1	12.3%
N=c1c2c(ncn1Cc1ccco1)Oc1c(ccc3ccccc13)C2c1ccccc1 (stereo not drawn)	1.59%
O=C(CC1OC(=O)c2ccccc21)NC1CCCCC1 (stereo not drawn)	14.1%
Cc1ccc(S(=O)(=O)N2CCCC(C(=O)Nc3ccc(C(=O)O)cc3)C2)cc1Cl (stereo not drawn)	-15.7%
COc1ccc(C)cc1NC(=O)CCc1c(C)nn(-c2ccc(N3CCCCC3)nn2)c1C	7.22%
Cc1cccc(C)c1NC(=O)COc1cccc(/C=N/NC(=O)C(=O)NCc2ccccc2)c1	1.74%

SMILES	hERG current change (%, negative = inhibition) at 1uM
COC(=O)c1cc2c(-c3ccccc3)cc3ccccn3c-2c1C(=O)OC	10.4%
Cc1noc(C)c1CSc1ncnc2sc3c(c12)CCC(C)C3 (stereo not drawn)	6.66%
COc1ccc(OC)c(/C=C/c2nc3ccccc3[nH]c2=O)c1	13.2%
CCCN1C(=O)C(O)(CC(=O)c2cccc(OC)c2)c2ccccc21 (stereo not drawn)	6.79%
O=C(CSc1ccccc1C(=O)O)NCc1ccccc1	12.9%
Cc1c(NC(=O)COc2ccc3ccccc3c2)c(=O)n(-c2ccccc2)n1C	-6.25%
C=CCn1c(SCC(=O)O)nnc1-c1cccs1	9.03%
O=C1C=C(Nc2ccc(Cl)cc2)CC(c2ccco2)C1 (stereo not drawn)	4.78%
O=C(CCCOc1ccc(Cl)cc1)NC1CCCCC1	12.5%
COc1ccc(C(CNC(=O)c2cc(F)c(F)c(F)c2F)N2CCOCC2)cc1 (stereo not drawn)	8.2%
CC(=O)c1cccc(S(=O)(=O)NC2CCSc3ccccc32)c1 (stereo not drawn)	7.95%
CC(C)(C)C(=O)Nc1nc(-c2ccc3c(c2)OCO3)cs1	2.21%
Cc1ccc(SC[C@H](C)CN2CC[C@H](NC(=O)OCc3ccccc3)CCC2=O)cc1	-8.38%
CCN(CC)CC(=O)Nc1ccc2c(c1)N(C(=O)CN(CC)CC)c1ccccc1CC2.Cl.O	15.9%
Cc1ccsc1/C=N/NC(=S)NCCc1ccccc1	7.99%
CC(=O)c1c(C)[nH]c(C(=O)CSc2nnc(C)s2)c1C	1.75%
COCCNC(=O)c1onc(CSc2ccc(F)c(F)c2)c1C(=O)O	6.16%
CC(C)CN(C(=O)Cn1c(C(F)(F)F)nc2ccccc21)C1CCS(=O)(=O)C1 (stereo not drawn)	2.67%
CCOc1cc2[nH]c(=S)n(CCN3CCCCC3CC)c(=O)c2cc1OCC (stereo not drawn)	-19.5%
CN(Cc1ccc(F)cc1)C(=O)c1ccc(NS(=O)(=O)c2ccc3[nH]c(=O)[nH]c3c2)cc1	12.8%
C(=N\Nc1nc(-c2ccccc2)cs1)/c1ccncc1	9.82%
CSc1ccc(CCNC(=O)CCc2nnc3ccc(N4CCC5(CC4)OCCO5)nn23)cc1	18%

SMILES	hERG current change (%, negative = inhibition) at 1uM
O=C(NCc1ccccn1)Nc1ccc(Br)cc1Cl	15.5%
Cc1cc(C(=O)CSc2nnc(-c3ccco3)o2)c(C)n1Cc1ccco1	19.6%
CC1CCCN(C(=O)c2ccc3c(c2)C(=O)N(CCC2=CCCCC2)C3=O)C1 (stereo not drawn)	4.73%
Cc1cc(C(=O)N2CCc3c([nH]c4ccccc34)C2c2cccc(Cl)c2)nn1C (stereo not drawn)	15.5%
CCOC(=O)c1nnn(-c2ccc([N+](=O)[O-])cc2[N+](=O)[O-])c1C	11.6%
O=C(NCc1cccs1)C1CCN(S(=O)(=O)c2cccc([N+](=O)[O-])c2)CC1	0.192%
O=C(CNCc1ccccc1Cl)Nc1ccccc1N1CCCCC1.O=C(O)C(=O)O	18%
CN(C(=O)c1c(Cl)nc2sccn12)C1CCCCC1	-2.92%
Cc1nnc(NC(=O)C(C)Sc2nncn2C)s1 (stereo not drawn)	15.3%
Cc1ccc(O)c(C(=O)c2cnc3c(c2)COc2ccccc2-3)c1	2.56%
CCCCCC(=O)Nc1ccc(Cl)cn1	15.4%
CC12CCC(=O)N1C(C(=O)Nc1cc(Cl)ccc1N1CCCC1)CS2 (stereo not drawn)	9.47%
CC(C)(C)NC(=O)Cn1nnnc1-c1nonc1N	-5.68%
COc1cccc([C@@H]2Oc3ccc(OC)cc3C(=O)[C@H]2OC(=O)Nc2cc(OC)c(OC)c(OC)c2)c1	12.5%
O=C(NCCCN1CCOCC1)c1ccc(Cl)cc1Cl	7.26%
CC(C)C(=O)N1CCN(c2ccccc2NC(=O)c2ccc(C#N)cc2F)CC1	-9.51%
CC(C)Cn1c(N)c(C(=O)COC(=O)c2c(O)c(Cl)cc(Cl)c2Cl)c(=O)n(C)c1=O	-2.42%
C[C@@H](C(=O)N1CCNCC1)n1cc(CCC(=O)O)nn1.Cl	19.8%
Cc1c(/C=C2\SC(=Nc3cccc(C(=O)O)c3)NC2=O)c2ccccc2n1C	3.96%
Clc1nc(Cl)nc(N(c2ccccc2)c2ccccc2)n1	4.34%
CN(C(=O)c1ccc2c(c1)S(=O)(=O)N=C1CCCCCN12)c1ccccc1	8.7%
